Target: the molecule itself
Experiment: cross-linking

Protein | binding result
Hsp90Ec-Q358C (natural protein) not shown | binds
Hsp90Ec-E584C (natural protein) not shown | binds
